# From PMC4336329 (PLoS ONE, 2015)
# Out of some 310,000 compounds screened, about 14,000 (4.5%) showed an effect of 50% or more. Effects have a minus sign here. Some of the results follow.
# Biological target: human ether-à-go-go-related gene (hERG) potassium channel (human, UniProt Q12809)
# Assay: primary screen, population patch clamp on CHO cells stably expressing hERG
# 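Also: peak tail current of the secondary pulse compared with the same well before compound.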
# human ether-à-go-go-related gene (hERG) potassium channel, sequence (Q12809 whole entry, looked up): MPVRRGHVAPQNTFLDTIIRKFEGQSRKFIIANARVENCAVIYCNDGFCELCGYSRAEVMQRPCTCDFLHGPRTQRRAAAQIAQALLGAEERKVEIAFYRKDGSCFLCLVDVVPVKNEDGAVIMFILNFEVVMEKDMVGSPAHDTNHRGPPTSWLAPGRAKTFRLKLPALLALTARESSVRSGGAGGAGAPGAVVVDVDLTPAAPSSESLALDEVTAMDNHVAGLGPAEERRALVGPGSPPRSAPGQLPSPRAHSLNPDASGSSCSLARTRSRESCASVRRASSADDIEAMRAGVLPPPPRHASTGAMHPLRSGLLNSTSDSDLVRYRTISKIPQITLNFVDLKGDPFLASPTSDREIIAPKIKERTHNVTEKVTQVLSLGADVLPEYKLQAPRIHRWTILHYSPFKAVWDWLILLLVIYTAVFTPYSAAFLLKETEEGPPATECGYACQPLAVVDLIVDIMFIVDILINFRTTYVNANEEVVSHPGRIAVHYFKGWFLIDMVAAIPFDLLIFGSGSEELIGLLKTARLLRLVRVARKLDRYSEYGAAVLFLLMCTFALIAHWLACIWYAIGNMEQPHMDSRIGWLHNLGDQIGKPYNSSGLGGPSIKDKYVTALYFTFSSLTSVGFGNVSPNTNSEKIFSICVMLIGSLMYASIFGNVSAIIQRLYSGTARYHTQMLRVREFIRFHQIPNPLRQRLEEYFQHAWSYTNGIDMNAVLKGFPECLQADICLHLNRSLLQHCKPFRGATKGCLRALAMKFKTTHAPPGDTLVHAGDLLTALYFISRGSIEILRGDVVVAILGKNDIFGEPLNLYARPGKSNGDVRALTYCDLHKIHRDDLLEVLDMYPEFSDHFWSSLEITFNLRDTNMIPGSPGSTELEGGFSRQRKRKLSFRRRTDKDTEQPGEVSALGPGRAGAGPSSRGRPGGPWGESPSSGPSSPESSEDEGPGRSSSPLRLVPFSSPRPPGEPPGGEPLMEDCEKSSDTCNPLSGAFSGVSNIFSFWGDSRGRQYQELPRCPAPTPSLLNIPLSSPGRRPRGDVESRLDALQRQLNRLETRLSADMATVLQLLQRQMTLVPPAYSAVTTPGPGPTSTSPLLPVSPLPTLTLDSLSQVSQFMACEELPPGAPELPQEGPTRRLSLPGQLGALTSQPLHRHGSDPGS
row,SMILES,"hERG current change (%, negative = inhibition) at 10uM [%]"
1,Cc1ccc(S(=O)(=O)Nc2cc(NC(=O)CN3CCOCC3)ccc2Cl)cc1.Cl,-7.58
2,CC(=O)Nc1ccc(/C=N/N2C(=O)NC(C)(c3ccc(OC(F)F)cc3)C2=O)cc1 (stereo not drawn),-10.5
3,O=C(NC(=S)N1CCN(c2ccccn2)CC1)c1ccccc1,11.2
4,NS(=O)(=O)c1ccc(NC(=O)CCCCC(=O)Nc2ccc(S(N)(=O)=O)cc2)cc1,4.12
5,Cc1ccc(S(=O)(=O)N(C)CC(=O)N(CC(C)C)C2CCS(=O)(=O)C2)cc1 (stereo not drawn),-2.85
6,CCc1ccc(NC(=O)c2sccc2-n2cccc2)cc1,-7.29
7,COc1cccc(C(=O)Nc2cc(-c3cn4cccnc4n3)ccc2C)c1,-12
8,CCOc1ccc(-c2nc(-c3ccccc3)no2)cc1OCC,-12.3
9,CCOC(=O)c1cnn(-c2ccccc2)c1N,9.6
10,COc1ccc(CN2C(=O)CCC2(C)C(=O)NC2CCCCC2)c(OC)c1 (stereo not drawn),3.3
11,CC(=O)Cn1c(CN2CC(C)CC(C)C2)nc2c1c(=O)n(C)c(=O)n2C (stereo not drawn),2.98
12,O=C(NCCc1ccc(F)cc1)C(=O)NCC1CCCN1S(=O)(=O)c1ccccc1 (stereo not drawn),-61.7
13,COc1ccc(CCNC(=O)c2cccnc2Cl)cc1OC,9.91
14,Cc1ccc(N2CCN(/N=C/C=C/c3ccccc3)CC2)cc1,10.7
15,COc1ccc2nc(NC(=O)c3sc4nc(C)cc(C)c4c3N)sc2c1,-8.69
16,Nc1c(Br)c(=O)[nH]c(=O)n1-c1ccccc1,9.37
17,CCOC(=O)c1nc2cc3n(c(C)c-2c1C)C(C)C(CC)=C3C.Cl (stereo not drawn),-66.7
18,CCOC(=O)C1=C(C)N(c2ccc(C)cc2)C(=O)/C1=C\c1ccc(O)c(OC)c1,-0.0882
19,OCC[C@H]1C[C@H](O)[C@@H](O)[C@@]2(CCCO2)O1,20.1
20,O=C(N/N=C(\CC(=O)c1cccs1)C(F)(F)F)c1cccnc1,16.4
21,COc1ccccc1/C=C/C=N/NC(=O)c1ccc2nc[nH]c2c1,13.6
22,O=C(CCSc1nnc(-c2ccc(O)cc2)o1)N1CCOCC1,17.9

row,SMILES,"hERG current change (%, negative = inhibition) at 10uM [%]"
1,CCSC(=Nc1ccccc1)C1=C(O)COC1=O,13.9
2,O=C1CCC(=O)N1CCOP1(=O)COc2ccccc2OC1,20.6
3,Cc1cc(-c2n[nH]c(=S)n2/N=C/C(Br)=C/c2ccccc2)n[nH]1,9
4,O=C(O)CCSc1nnc(COc2ccc(Cl)cc2)n1-c1ccccc1,11.6
5,Cc1ccc(CSc2nnc(-c3cccc(S(=O)(=O)N4CCOCC4)c3)n2C2CCCC2)cc1,-17.7
6,O=[N+]([O-])c1ccccc1Nc1ccccc1,3.08
7,Cc1ccc(NC(=O)COC(=O)c2c[nH]c3ccccc23)cc1C,14.5
8,O=C(CNC(=O)c1sc2ccccc2c1Cl)NCc1ccc(F)cc1,18.3
9,COc1ccc(C2=NS(=O)(=O)N(C)C(C(=O)N3CCN(C)CC3)=C2)cc1,-1.87
10,COc1ccc(-c2nnc(C3CCN(S(=O)(=O)c4ccccc4)CC3)o2)cc1,-47.4
11,CN(C)/C=C/C(=O)c1cnc(-c2ccccn2)s1,16.6
12,Cc1ccc(NNC(=O)C(O)(c2cccc(C(F)(F)F)c2)c2cccc(C(F)(F)F)c2)cc1,-7.55
13,CN(C)N=O,24.9
14,CC(=O)Nc1ccc(S(=O)(=O)NCc2csc(-c3cccnc3)n2)cc1,0.532
15,Cc1cc(C(=O)CSc2nc3ccccc3o2)c(C)n1CC1CCCO1 (stereo not drawn),-4.77
16,COc1ccc2c(c1OC)C(=O)OC2Nc1nc(-c2cc3cc([N+](=O)[O-])ccc3oc2=O)cs1 (stereo not drawn),14.9
17,CCCCN(C)CCN1C(=O)C2C(C(=O)Nc3cccc(OC)c3)C3C=CC2(O3)C1C(=O)NC1CCCCC1C (stereo not drawn),-14.7
18,CNC(=O)Nc1ccc(Cn2cc(C(F)(F)F)ccc2=O)cc1,16.9
19,O=C(NCc1ccccn1)C(=O)NCC1OCCCN1S(=O)(=O)c1cc(F)ccc1F (stereo not drawn),6.44
20,Cc1ccc(CNC(=O)C2CCC(=O)N(CC3CCCCC3)C2)o1 (stereo not drawn),13.2
21,Cc1nc(/N=C\c2ccc(N(C)C)cc2)sc1C,11.5
22,Cc1cc(C)n(-c2nc3ccccc3n3c(C)nnc23)n1,6.03

row,SMILES,"hERG current change (%, negative = inhibition) at 10uM [%]"
1,COC(=O)c1ccccc1NC(=O)Nc1cccc(C)n1,-1.03
2,CC(=O)Nc1ccc(Nc2ncnc3c2cnn3-c2ccccc2)cc1,12.9
3,O=Cc1cn(-c2ccccc2)nc1-c1ccc2c(c1)OCCO2,-0.855
4,O=C(OCC(=O)N1CCCC1)c1cc(Cl)ccc1Cl,9.45
5,O=C(COC(=O)CCc1c[nH]c2ccccc12)NCc1ccc(Cl)cc1,-15.5
6,Cc1ccc(S(=O)(=O)NC2CCCCCC2)cc1C(N)=O,3.28
7,CCCC1=C(C(=O)OCC)C(/C=C/c2ccccc2)n2ncnc2N1 (stereo not drawn),16.7
8,CC(C)CCNC(=O)CCSCCC(=O)NCCC(C)C,-8.59
9,CCn1c(C2CCN(S(=O)(=O)c3ccc(OC)cc3)CC2)n[nH]c1=S,-18
10,CCCOc1ccc(C(=O)NC(=S)N2CCN(c3cc4c(cc3F)c(=O)c(C(=O)O)cn4CC)CC2)cc1,19.5
11,CCOC(=O)c1cc2sccc2n1CC(=O)c1ccc2c(c1)OCCO2,-7.18
12,CC1CN(S(=O)(=O)c2ccc(NC(=O)c3ccco3)cc2)CC(C)O1 (stereo not drawn),-1.61
13,Cc1occc1-c1nnc(SCC(=O)NC2CCC(C)CC2)o1 (stereo not drawn),-16.2
14,CCOC(=O)Cc1csc(NC(=S)NC(=O)c2cccc([N+](=O)[O-])c2)n1,-1.83
15,CC(C)c1ccc(NC(=O)[C@@H](C)NC(=O)[C@@H]2Cc3ccccc3CN2)cc1,-29.2
16,Cn1c(C(=O)O)c(CC(=O)N2CCC(Cc3ccccc3)CC2)c2ccccc21,-7.61
17,Cc1cc(C)nc(NC(N)=NCCc2c[nH]c3ccccc23)n1,11.6
18,CC(C)(C)c1nc(SCC(=O)NC2CCCC2)c2ccccc2n1,12.9
19,CCN(CC)C(=O)Cn1cnc2sc(C)c(S(=O)(=O)N3CCC(C)CC3)c2c1=O,-7.84
20,O=C(CN1CCN(C2CCCCC2)CC1)c1c[nH]c2ccccc12,-27.1
21,CC[C@@H](C)[C@@H](C(=O)N1CCN(C(=O)OC(C)(C)C)CC1)n1cc(CCCCNC(=O)OC(C)(C)C)nn1,-3.8
22,COc1ccc(N(CC(=O)Nc2cccc(N(C)S(C)(=O)=O)c2)S(=O)(=O)c2ccccc2)cc1Cl,-2.82

row,SMILES,"hERG current change (%, negative = inhibition) at 10uM [%]"
1,O=C(O)CC1(CC(=O)Nc2ccc3ccccc3c2)CCCCC1,5.81
2,COc1ccc(C)cc1S(=O)(=O)N1CCCC(C(=O)NCC2CCCO2)C1 (stereo not drawn),0.85
3,COc1ccccc1CNS(=O)(=O)c1c(C)[nH]c(C)c1C(=O)N1CCCC1,5.96
4,CCN(c1ccccc1)S(=O)(=O)c1ccc(OC)c(NC(=O)CNCCc2ccccc2)c1.O=C(O)C(=O)O,-14.7
5,COc1ccc(OCc2cccc(C(=O)Nc3cc(C)on3)c2)cc1,-9.84
6,O=C(Nc1cccc2ccccc12)C12CC3CC(C1)CC(n1cnc([N+](=O)[O-])n1)(C3)C2,-44.5
7,Cn1c(SCC(=O)NCc2ccc3c(c2)OCO3)nnc1-c1cc2ccccc2cc1O,10.1
8,Cc1ccc(NC(=O)N2CCCC(C(=O)O)C2)cc1 (stereo not drawn),5.42
9,CC(NC(=O)CC12CC3CC(CC(C3)C1)C2)C(=O)O (stereo not drawn),9.99
10,COc1ccc(C(=O)NNC(=O)COC(=O)c2sccc2C)cc1,9.39
11,Cc1ccc(C)c(NCC(O)c2ccccc2)c1 (stereo not drawn),-2.21
12,NC(=S)NN=C1c2cc(S(=O)(=O)N3CCOCC3)ccc2-c2ccc(S(=O)(=O)N3CCOCC3)cc21,3.26
13,CCC(CC)NC(=O)c1cccc([N+](=O)[O-])c1C,-3.15
14,CP(=O)(Nc1ccc(Cl)cc1)c1nc2c(s1)CCCC2 (stereo not drawn),-3.08
15,O=C(NC(=S)Nc1cccc(Cl)c1N1CCCCC1)c1ccc2c(c1)OCCO2,14.8
16,COc1ccc(CC(=O)N/N=C(\C)c2cccnc2)cc1,-4.38
17,Cc1ccc(S(=O)(=O)CCC(=O)OC(C)C(=O)N2CCc3ccccc32)cc1 (stereo not drawn),-21.2
18,O=C1c2ccccc2C(Nc2ccc(S(=O)(=O)N3CCOCC3)cc2)N1Cc1ccco1 (stereo not drawn),-48.8
19,Cc1ccc(S(=O)(=O)N2CCN(CC(=O)N/N=C\C(Cl)=C\c3ccccc3)CC2)cc1,-48
20,O=C(Cn1c(=O)oc2cc(S(=O)(=O)N3CCCC3)ccc21)Nc1cccc(C(F)(F)F)c1,-1.36
21,CC1Cc2cc(/C(O)=C3/C(=O)C(=O)N(CCCn4ccnc4)C3c3ccco3)ccc2O1 (stereo not drawn),14.7
